In all, about 410,000 compounds went through this assay and about 6,400 (1.6%) were called active. Inconclusive results, whose numbers are uncertain, are shown with a selection of clear calls. Calls come from the whole dose curve; as a rule, active = well fitted inhibition curve with a large enough effect; inconclusive = small, poorly fitted or top-dose-only effect; inactive = no such curve, though single readings can be large or run the other way. Potencies of inconclusive entries are left out as doubtful fits.
Each compound was assayed against Glucagon-like peptide 1 receptor (Homo sapiens) (UniProt P43220) (assay: qHTS of GLP-1 Receptor Inverse Agonists (Inhibition Mode)). Conditions: HEK293 GLP-1R CRE-luciferase, luminescence, 24 h, GLP-1R form is constitutively active; activity change, negative = inhibition: at 38.3 µM (top of the series) unless noted.
Chain of UniProt P43220 (P43220 whole entry, looked up): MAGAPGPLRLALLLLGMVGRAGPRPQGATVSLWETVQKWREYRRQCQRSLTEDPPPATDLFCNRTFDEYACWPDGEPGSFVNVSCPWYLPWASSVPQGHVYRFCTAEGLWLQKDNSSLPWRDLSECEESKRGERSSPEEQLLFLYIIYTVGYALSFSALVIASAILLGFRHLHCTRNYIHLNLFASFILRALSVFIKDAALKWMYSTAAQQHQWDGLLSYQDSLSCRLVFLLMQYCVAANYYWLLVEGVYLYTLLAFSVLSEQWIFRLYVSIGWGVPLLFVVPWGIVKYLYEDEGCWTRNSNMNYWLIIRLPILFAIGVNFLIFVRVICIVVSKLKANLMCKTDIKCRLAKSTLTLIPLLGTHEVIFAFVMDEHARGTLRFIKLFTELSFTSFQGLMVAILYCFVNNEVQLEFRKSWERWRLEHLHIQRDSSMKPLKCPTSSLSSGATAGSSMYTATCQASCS
Summary of the method: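 Assay principle: reduced luminescence from a cAMP-responsive reporter in HEK293 cells co-expressing a constitutively active GLP-1R. Conditions: 24 hr compound incubation, 37 deg C, 5% CO2.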
`CC(C)(C)c1ccc(-n2nc(C#N)c(Cl)cc2=O)cc1` was tested, and the Potency was inconclusive [inhibitor, single point]. In the case of `COc1ccc(Nc2nc(N3CCOCC3)nc(N3CCOCC3)n2)cc1Cl`, the Potency is reported as inconclusive [inhibitor, partial curve, poor fit]. For `COc1cccc(NC(=O)c2oc3ccc(S(=O)(=O)N4CCC5(CC4)OCCO5)cc3c2C)c1`, the Potency was inconclusive [inhibitor, full curve]. For `CCOc1cc(/C=C(/C#N)c2ccc(Cl)cc2)cc(Cl)c1OCC(=O)O`, the Potency was inconclusive [inhibitor, single point]. `Cc1ccccc1CSCc1ccc(C(=O)NCCc2ccccc2)o1` was tested, and the Potency was inconclusive [inhibitor, single point]. `COc1ccc(Cn2nnnc2C(c2ccccc2)N2CCN(C3CCCC3)CC2)cc1` (stereo not given) was tested, and the Potency was inconclusive [inhibitor, partial curve, poor fit]. With `CSCCC(NC(=O)COc1ccccc1)C(=O)N(C)Cc1ccc(SC)cc1` (stereo not given) the Potency was inconclusive [inhibitor, single point]. In the case of `Nc1nnc(CC(=O)N/N=C/c2ccc(-c3ccc(Cl)cc3Cl)o2)s1`, the “activity change, negative = inhibition” value is reported as inactive: -28.3%. In the case of `COc1cccc(-n2c(SCc3cc(=O)oc4cc(O)c(O)cc34)nc3ccccc3c2=O)c1`, the “activity change, negative = inhibition” value is reported as inactive: -16.4%. In the case of `Clc1ccc(/C=N/NC(=Nc2ccccc2)c2ccccn2)c(Cl)c1`, the “activity change, negative = inhibition” value is reported as inactive: 5.9%. In the case of `C=CCn1c(=N)n(CC(=O)c2ccc(Cl)cc2)c2ccccc21`, the Potency is reported as inconclusive [inhibitor, single point]. For `CCCNC(=O)c1onc(CSc2ccc(Cl)cc2)c1C(=O)NC(C)C`, the Potency was inconclusive [inhibitor, single point]. In the case of `CCCCCC(=O)NNC(=O)c1ccc(-c2ccccc2)cc1`, the “activity change, negative = inhibition” value is reported as inactive: 0%. In the case of `CC1CCN(C(=O)c2[nH]cnc2C(=O)N[C@@H](Cc2ccccc2)C(=O)OC(C)(C)C)CC1`, the Potency is reported as inconclusive [inhibitor, partial curve, poor fit]. With `CCOc1ccc(C(CC(=O)Nc2ccc(C(=O)OC)cc2)N2Cc3ccccc3C2=O)cc1OC` (stereo not given) the “activity change, negative = inhibition” value was inactive: 10.2%. For `Cc1ccsc1C(=O)OCC(=O)N1CC(C)CC(C)C1` (stereo not given), the Potency was inconclusive [inhibitor, single point]. In the case of `Cc1ccc(-n2cc(CN3CCC(CO)(Cc4cccc(C(F)(F)F)c4)CC3)cn2)cc1`, the Potency is reported as inconclusive [inhibitor, partial curve, poor fit]. For `COc1ccc(-c2cn[nH]c2-c2ccc(OCC(=O)NN)cc2O)cc1`, the Potency was inconclusive [inhibitor, partial curve, poor fit]. In the case of `COc1ccc(N2CC(C(=O)Nc3ccccc3-c3nc(-c4ccc(C)cc4)no3)CC2=O)cc1` (stereo not given), the “activity change, negative = inhibition” value is reported as inactive: -1.04%. For `CCn1cnc2cc(NC(=O)c3ccc(C)cc3)ccc21`, the “activity change, negative = inhibition” value was inactive: -15.4%. For `CCOc1ccc(CSCCNC(=S)Nc2ccccc2)cc1`, the Potency was inconclusive [inhibitor, single point]. For `Cn1c(=O)c2c(nc(NCc3ccccc3)n2Cc2ccc(Cl)c(Cl)c2)n(C)c1=O`, the Potency was inconclusive [inhibitor, partial curve, poor fit]. `CC(NCc1cccs1)C(=O)Nc1cc(Cl)cc(Cl)c1` (stereo not given) was tested, and the Potency was inconclusive [inhibitor, partial curve, poor fit]. In the case of `CC1Cc2ccccc2N1C(=O)CO/N=C/c1ccccc1OC(F)F` (stereo not given), the Potency is reported as inconclusive [inhibitor, partial curve, poor fit]. With `Cc1cc(CC(C)C)n(-c2nc3ccccc3c(=O)n2OCC(=O)N(C)C)n1` the “activity change, negative = inhibition” value was inactive: 8.45%. In the case of `Cc1cc(NCCCN2CCOCC2)n2nc(C)c(-c3ccc(F)cc3)c2n1`, the Potency is reported as inconclusive [inhibitor, full curve, poor fit]. With `COc1ccccc1N1CCN(C(=O)c2[nH]c(C(F)(F)F)nc2-c2ccccc2)CC1` the Potency was inconclusive [inhibitor, full curve, poor fit]. `CCCCNC(=O)C1(C)CCCCN1C(=O)c1cccc(OC(F)(F)F)c1` (stereo not given) was tested, and the Potency was inconclusive [inhibitor, single point]. For `O=C(Nc1ccc(Oc2ccccc2)cc1)c1csc([C@@H]2O[C@H](CO)[C@@H](O)[C@H]2O)n1`, the Potency was inconclusive [inhibitor, single point]. For `Cc1c(Cl)cccc1NC(=S)NC(=O)c1ccccc1`, the Potency was inconclusive [inhibitor, single point]. In the case of `CN(CCOc1ccc(Cl)cc1)Cc1cccc(S(=O)(=O)N(C)C)c1`, the Potency is reported as inconclusive [inhibitor, single point]. With `COC(=O)C(C(=O)Nc1cccc(C)n1)C1CCCCCC1` (stereo not given) the Potency was inconclusive [inhibitor, partial curve, poor fit]. For `Cc1ccc(-c2csc3nc(CN(C)Cc4ccccc4)[nH]c(=O)c23)cc1`, the Potency was inconclusive [inhibitor, partial curve, poor fit]. For `N=c1c2c(n(Cc3ccc(F)cc3)c3c1CCC3)CCC2`, the Potency was inconclusive [inhibitor, single point]. For `CC(C(=O)Nc1c2c(cc3c1CCC3)CCC2)N1CCCC1` (stereo not given), the Potency was inconclusive [inhibitor, single point]. In the case of `COc1ccc2cc(C[C@@H]3CC[C@@H](CNC(N)=O)O3)ccc2c1`, the “activity change, negative = inhibition” value is reported as inactive: 23.3%. `C[C@@H]1Cn2cnc(C(=O)Nc3ccc(CNC(=O)OC(C)(C)C)cc3)c2C(=O)N1` was tested, and the “activity change, negative = inhibition” value was inactive: 10.1%. For `COc1ccc(C)cc1NC(=O)c1cc(S(=O)(=O)NCCC2=CCCCC2)ccc1F`, the Potency was inconclusive [inhibitor, single point]. `FC(F)(F)c1cc(CCN2C(=S)NC[C@@H]2c2ccccc2)cc(C(F)(F)F)c1` was tested, and the Potency was inconclusive [inhibitor, single point]. In the case of `CCOc1cccc(C(=O)Nc2ccccc2N2CCN(C(=O)C(C)C)CC2)c1`, the Potency is reported as inconclusive [inhibitor, partial curve, poor fit]. In the case of `Clc1ccc(-c2noc3ncnc(N4CCCCC4)c23)cc1`, the “activity change, negative = inhibition” value is reported as inactive: -1.79%. `C=CCS/C(N)=N\N=C\c1c(O)ccc2ccccc12` was tested, and the Potency was inconclusive [inhibitor, full curve, poor fit]. For `CCCCC[C@@H](C)N1C[C@@H](COCc2ccccc2)Oc2cc(N3CC[C@@H](N(C)C)C3)ccc2S1(=O)=O`, the Potency was inconclusive [inhibitor, partial curve, poor fit]. With `Cc1ccccc1-c1ccc2c(c1)O[C@@H](CN(C)C(=O)Nc1ccc(C(F)(F)F)cc1)[C@H](C)CN([C@@H](C)CO)S2(=O)=O` the Potency was active: 6.31 µM. `Cc1ccc(NC(=S)N(CCCN2CCOCC2)Cc2ccccn2)cc1Cl` was tested, and the Potency was inconclusive [inhibitor, partial curve, poor fit]. In the case of `CC(=NNC(N)=S)c1ccc2cc3c(cc2c1)OCO3`, the Potency is reported as active: 2.82 µM. `N/C(=N\OC(=O)/C=C/c1ccccc1Cl)c1ccccn1` was tested, and the Potency was inconclusive [inhibitor, partial curve, poor fit]. For `O=C(Nc1ccc(F)cc1)C1C(c2ccccc2)C1(Cl)Cl` (stereo not given), the Potency was inconclusive [inhibitor, partial curve, poor fit]. For `Cc1ccc(C(=O)Nc2nc(-c3ccc4c(c3)OCCO4)cs2)o1`, the Potency was inconclusive [inhibitor, single point]. `COc1ccc(NS(=O)(=O)c2cc3c(cc2C)N(C)CCO3)cc1` was tested, and the Potency was inconclusive [inhibitor, single point]. With `Cc1[nH]c2ccccc2c1/C=N/NC(=S)NC(C)C` the Potency was inconclusive [inhibitor, partial curve, poor fit]. `CCOc1cc(C)c(Cl)cc1S(=O)(=O)N(CC)CC` was tested, and the Potency was inconclusive [inhibitor, partial curve, poor fit]. In the case of `CCCc1c(NC(=O)Nc2ccc(F)cc2)cnn1-c1ccccc1`, the Potency is reported as inconclusive [inhibitor, full curve, poor fit]. For `CC(=O)Nc1ccc(Nc2ccc(S(=O)(=O)C(F)(F)F)cc2[N+](=O)[O-])cc1`, the Potency was inconclusive [inhibitor, single point]. In the case of `COc1cccc(NC(=O)Nc2cc(-c3cn4cccnc4n3)ccc2OC)c1`, the “activity change, negative = inhibition” value is reported as inactive: -21.4%. In the case of `CC(=O)c1ccc(OC(C)C)c(CSc2nc(O)cc(=O)[nH]2)c1`, the “activity change, negative = inhibition” value is reported as inactive: 19.4%. In the case of `COc1ccccc1N(CC(=O)NC1CCCCC1)S(=O)(=O)c1ccccc1`, the “activity change, negative = inhibition” value is reported as inactive: -10.2%. For `O=C(NCC(c1ccco1)S(=O)(=O)c1cccs1)c1ccc(C(F)(F)F)cc1` (stereo not given), the “activity change, negative = inhibition” value was inactive: -27.3%. `CCOC(=O)c1ccc(NC(=O)Nc2ccccn2)cc1` was tested, and the “activity change, negative = inhibition” value was inactive: -9.89%. For `CCOc1cc(Cl)c(S(=O)(=O)n2cc(C)nc2CC)cc1Cl`, the Potency was inconclusive [inhibitor, partial curve]. With `COc1ccc(S(=O)(=O)NCCSCc2ccco2)cc1` the Potency was inconclusive [inhibitor, single point]. For `O=C(OCc1ccccc1Cl)c1ccc(-n2cnnc2)cc1`, the “activity change, negative = inhibition” value was inactive: 8.93%. In the case of `Cc1cc(C)c2nc(NNC(=O)c3ccc(S(=O)(=O)N4CCCC(C)C4)cc3)sc2c1` (stereo not given), the Potency is reported as inconclusive [inhibitor, single point]. In the case of `O=C(NCCCN1CCOCC1)c1ccc2c(c1)N(Cc1cccc(Cl)c1)C(=O)CS2`, the Potency is reported as inconclusive [inhibitor, partial curve, poor fit]. In the case of `Cc1ccc(C(=O)NCCSc2ccc(Cl)cc2)cc1S(=O)(=O)Nc1ccccc1`, the Potency is reported as inconclusive [inhibitor, partial curve, poor fit].
% is set by controls: 0 for no effect and ±100 for the full control effect; potency is the fitted concentration of half-maximal effect; tags give direction and shape of the fitted curve.
Note: nearly all actives have a fitted effect of over 55% in size.
